{"source": "paper PMC4336329", "about": "(PLoS ONE, 2015)", "note": "In all, about 310,000 compounds went through this assay and about 2,200 (0.71%) showed an effect of 50% or more. Effects have a minus sign here. Some of the results follow.", "data": [{"biological_target": "human ether-à-go-go-related gene (hERG) potassium channel (human, UniProt Q12809)", "sequence (Q12809 whole entry, looked up)": "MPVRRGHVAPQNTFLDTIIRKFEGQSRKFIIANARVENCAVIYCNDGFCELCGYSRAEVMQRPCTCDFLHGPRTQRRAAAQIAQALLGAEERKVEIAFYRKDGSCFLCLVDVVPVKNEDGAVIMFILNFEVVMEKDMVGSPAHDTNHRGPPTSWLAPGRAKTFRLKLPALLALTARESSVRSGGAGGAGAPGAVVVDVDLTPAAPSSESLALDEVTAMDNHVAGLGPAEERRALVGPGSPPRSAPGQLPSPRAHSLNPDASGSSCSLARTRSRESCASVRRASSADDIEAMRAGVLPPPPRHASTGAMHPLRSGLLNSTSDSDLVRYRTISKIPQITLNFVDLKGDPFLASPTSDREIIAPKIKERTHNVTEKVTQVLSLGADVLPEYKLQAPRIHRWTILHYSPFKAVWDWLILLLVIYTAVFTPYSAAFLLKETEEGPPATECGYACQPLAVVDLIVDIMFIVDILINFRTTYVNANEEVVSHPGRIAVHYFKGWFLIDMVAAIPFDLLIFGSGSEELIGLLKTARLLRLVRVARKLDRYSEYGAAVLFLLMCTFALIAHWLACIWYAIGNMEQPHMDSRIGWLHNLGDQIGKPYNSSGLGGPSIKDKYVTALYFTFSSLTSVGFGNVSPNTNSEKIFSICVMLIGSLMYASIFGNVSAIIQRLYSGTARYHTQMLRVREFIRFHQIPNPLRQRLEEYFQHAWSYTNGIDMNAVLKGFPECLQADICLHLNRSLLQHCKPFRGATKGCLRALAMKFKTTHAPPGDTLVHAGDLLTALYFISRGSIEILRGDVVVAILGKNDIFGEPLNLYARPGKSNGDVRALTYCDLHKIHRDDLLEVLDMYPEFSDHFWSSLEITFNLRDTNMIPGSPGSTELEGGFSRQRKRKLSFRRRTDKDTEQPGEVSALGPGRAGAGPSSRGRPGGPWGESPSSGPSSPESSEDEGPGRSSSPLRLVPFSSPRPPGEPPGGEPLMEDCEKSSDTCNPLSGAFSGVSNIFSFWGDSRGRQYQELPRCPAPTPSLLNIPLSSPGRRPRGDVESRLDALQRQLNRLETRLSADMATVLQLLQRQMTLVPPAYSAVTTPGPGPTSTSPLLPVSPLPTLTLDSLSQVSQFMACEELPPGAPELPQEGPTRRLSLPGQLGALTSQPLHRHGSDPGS", "assay": "primary screen, population patch clamp on CHO cells stably expressing hERG", "units": {"hERG current change (%, negative = inhibition) at 1uM": "%"}, "values": [{"smiles": "Cc1nc(C)c(C(=O)C2=C(O)C(=O)N(CCN3CCOCC3)C2c2ccco2)s1", "note": "(stereo not shown)", "hERG current change (%, negative = inhibition) at 1uM": 8.87}, {"smiles": "COC(=O)c1cn(Cc2c(C)cc(C)cc2C)nn1", "hERG current change (%, negative = inhibition) at 1uM": 8.06}, {"smiles": "Cc1cc(C)[n+](Cc2ccccc2)cc1C(N)=O.[Cl-]", "hERG current change (%, negative = inhibition) at 1uM": 15.1}, {"smiles": "O=C(CNC(=O)c1ccc(N2C(=O)c3ccccc3C2=O)cc1)OCC(=O)c1ccccc1", "hERG current change (%, negative = inhibition) at 1uM": 11}, {"smiles": "CCOC(=O)/C=C1\\SCC(=O)N1CC(=O)Nc1cccc(F)c1", "hERG current change (%, negative = inhibition) at 1uM": 10.8}, {"smiles": "COC(=O)CC1COc2ccccc2N1C(=O)c1ccc(C(C)(C)C)cc1", "note": "(stereo not shown)", "hERG current change (%, negative = inhibition) at 1uM": 3.35}, {"smiles": "Cc1nc2nc(SCC(=O)N3CCOCC3)nn2c(C)c1Cc1ccccc1", "hERG current change (%, negative = inhibition) at 1uM": 6.96}, {"smiles": "O=C1CCC([N+](=O)[O-])C(c2ccccc2Br)N1", "note": "(stereo not shown)", "hERG current change (%, negative = inhibition) at 1uM": 19.7}, {"smiles": "O=C(Cn1nnc2ccccc21)N1CCCCC1", "hERG current change (%, negative = inhibition) at 1uM": 2.74}, {"smiles": "CC(=O)Nc1ccc(NC(=O)COC(=O)c2ccc(C)s2)cc1", "hERG current change (%, negative = inhibition) at 1uM": 13.9}, {"smiles": "Cc1nc2ccccc2c(=O)n1-c1ccc(-c2ccccc2)cc1", "hERG current change (%, negative = inhibition) at 1uM": 9.59}, {"smiles": "COc1ccc(C[C@H]2CN3C(=NC[C@@H]3C(C)C)N2C[C@H](C)NC(=O)c2ccc(C)c(Br)c2)cc1", "hERG current change (%, negative = inhibition) at 1uM": -41.9}, {"smiles": "CC(=O)c1c(C)[nH]c(C(=O)Nc2nc(C)cs2)c1C", "hERG current change (%, negative = inhibition) at 1uM": 4.36}, {"smiles": "CSc1nnc(NC(=O)c2ccc(S(=O)(=O)N(C)C)cc2)s1", "hERG current change (%, negative = inhibition) at 1uM": 14.6}, {"smiles": "CCCCn1c(N)c(N(CC(C)C)C(=O)CCCc2cccs2)c(=O)[nH]c1=O", "hERG current change (%, negative = inhibition) at 1uM": 1.71}, {"smiles": "CCOC(=O)C1(Cc2cccc(F)c2)CCN(Cc2cn(CC)nc2C)CC1", "hERG current change (%, negative = inhibition) at 1uM": -6.14}, {"smiles": "CCN(C(=S)Nc1cccnc1)c1ccccc1", "hERG current change (%, negative = inhibition) at 1uM": 5.82}, {"smiles": "CCOc1ccccc1-n1c(O)c(C=Nc2c(C)n(C)n(-c3ccccc3)c2=O)c(=O)[nH]c1=O", "hERG current change (%, negative = inhibition) at 1uM": 8.47}, {"smiles": "Cc1cc(=O)n2c(-c3ccccc3C)n[nH]c2n1", "hERG current change (%, negative = inhibition) at 1uM": -3.44}, {"smiles": "CC(C)NC(=O)Cn1c(=O)cnc2ccccc21", "hERG current change (%, negative = inhibition) at 1uM": 3.1}, {"smiles": "COC(=O)c1ccc(C)c(NS(=O)(=O)c2cn(C)nc2C)c1", "hERG current change (%, negative = inhibition) at 1uM": 9.83}, {"smiles": "CCc1nc(SCC(=O)NNC(=O)C(C)C)c2ccccc2n1", "hERG current change (%, negative = inhibition) at 1uM": 13.7}, {"smiles": "COc1ccc(S(=O)(=O)Nc2ccc3c(c2)N(C(C)=O)CCC3)cc1", "hERG current change (%, negative = inhibition) at 1uM": 9.13}, {"smiles": "O=C(c1ccc(Cl)cc1)N(c1ccccn1)C1CCCCC1", "hERG current change (%, negative = inhibition) at 1uM": 18}, {"smiles": "Cc1cc(C)n(CC2CC(=O)N(c3ccc(Cl)c(Cl)c3)C2=O)n1", "note": "(stereo not shown)", "hERG current change (%, negative = inhibition) at 1uM": 8.07}, {"smiles": "COc1ccc(/C=N/Nc2ncc(Br)cn2)c(OC)c1", "hERG current change (%, negative = inhibition) at 1uM": 16.4}, {"smiles": "CCNC(=S)N1CCCCC1CO", "note": "(stereo not shown)", "hERG current change (%, negative = inhibition) at 1uM": 8.16}, {"smiles": "Cc1ccc(S(=O)(=O)N2CCN(C(=O)COC(=O)COc3cccc4c3OC(C)(C)C4)CC2)cc1", "hERG current change (%, negative = inhibition) at 1uM": 11.8}, {"smiles": "CC1(C)CC(=O)C2=C(C1)NCN(Cc1ccc3c(c1)OCO3)C2", "hERG current change (%, negative = inhibition) at 1uM": -1.66}, {"smiles": "COc1cc(CNc2ccccc2SC)ccc1O", "hERG current change (%, negative = inhibition) at 1uM": 4.46}, {"smiles": "Cc1noc(C)c1C(=O)Nc1ccccn1", "hERG current change (%, negative = inhibition) at 1uM": -3.65}, {"smiles": "Fc1ccc(-c2nnsc2Sc2ccccn2)cc1", "hERG current change (%, negative = inhibition) at 1uM": 8.4}, {"smiles": "CN(C)c1ccc(C(=O)c2ccccc2C(=O)O)cc1[N+](=O)[O-]", "hERG current change (%, negative = inhibition) at 1uM": 12.6}, {"smiles": "CCOC(=O)c1cnn(-c2cc(Oc3ccccc3C)ncn2)c1N", "hERG current change (%, negative = inhibition) at 1uM": 6.52}, {"smiles": "CCOc1ccccc1Oc1coc2cc(OC(=O)c3ccco3)ccc2c1=O", "hERG current change (%, negative = inhibition) at 1uM": -16.6}, {"smiles": "COc1cc(C(C)=O)ccc1Oc1ncnc2c1cnn2-c1ccc(C)c(C)c1", "hERG current change (%, negative = inhibition) at 1uM": 9.42}, {"smiles": "Cc1ccc2nc(-c3ccc(NS(C)(=O)=O)cc3)cc(-c3ccccc3)c2c1", "hERG current change (%, negative = inhibition) at 1uM": 6.3}, {"smiles": "Cc1cc(C)n2nc(CCCCc3nc4nc(C)cc(C)n4n3)nc2n1", "hERG current change (%, negative = inhibition) at 1uM": 15.7}, {"smiles": "CC1(C)C(=O)Nc2ccccc2N1C(=O)CSc1nnc2c(Cl)cc(Cl)cn12", "hERG current change (%, negative = inhibition) at 1uM": 3.67}, {"smiles": "N#Cc1ccc(Oc2cccc(C(=O)O)c2)cc1C#N", "hERG current change (%, negative = inhibition) at 1uM": 4.25}, {"smiles": "CSc1cccc(CNC(=O)CC2C(=O)NCCN2CC(C)(C)C)c1", "note": "(stereo not shown)", "hERG current change (%, negative = inhibition) at 1uM": 9.97}, {"smiles": "O=C(CSc1nc(Nc2ccccc2)nc(N2CCOCC2)n1)N1CCc2ccccc21", "hERG current change (%, negative = inhibition) at 1uM": 5.89}, {"smiles": "CC(=O)c1ccc(OC(NC(=O)c2ccco2)C(Cl)(Cl)Cl)cc1", "note": "(stereo not shown)", "hERG current change (%, negative = inhibition) at 1uM": -0.753}, {"smiles": "O=C(Nc1ccc(F)cc1)C1CCCN1S(=O)(=O)c1cccc2nsnc12", "note": "(stereo not shown)", "hERG current change (%, negative = inhibition) at 1uM": 3.54}, {"smiles": "CC(Sc1nnnn1C)C(=O)Nc1ccccc1", "note": "(stereo not shown)", "hERG current change (%, negative = inhibition) at 1uM": 8.45}, {"smiles": "N#Cc1ccc(Oc2nc(C(N)=O)cc(-c3ccccc3)n2)cc1", "hERG current change (%, negative = inhibition) at 1uM": 7.52}, {"smiles": "Cc1nc(-c2ccc3c(c2)OCCCO3)cs1", "hERG current change (%, negative = inhibition) at 1uM": 14.4}, {"smiles": "O=C(CSc1ccc(Cl)cc1)NC1CCCC1", "hERG current change (%, negative = inhibition) at 1uM": 10.7}, {"smiles": "CS(=O)(=O)N1CCC(C(=O)Nc2ccccc2Sc2ccccc2)CC1", "hERG current change (%, negative = inhibition) at 1uM": -1.17}, {"smiles": "O=C(/C=C/c1cccc([N+](=O)[O-])c1)NCC1CCCO1", "note": "(stereo not shown)", "hERG current change (%, negative = inhibition) at 1uM": 3.55}, {"smiles": "COc1cc(/C=C2\\SC(=S)N(Nc3ncc(C(F)(F)F)cc3Cl)C2=O)ccc1O", "hERG current change (%, negative = inhibition) at 1uM": 16.7}, {"smiles": "CCOC(=O)N1CCN(CC(O)COCc2ccccc2)CC1.Cl", "note": "(stereo not shown)", "hERG current change (%, negative = inhibition) at 1uM": 4.29}, {"smiles": "CCOc1cc2[nH]c(=O)n(CCCN3CCCC3=O)c(=O)c2cc1OCC", "hERG current change (%, negative = inhibition) at 1uM": 0.793}, {"smiles": "O=S(=O)(Cc1ccc(Cl)cc1)NCc1ccc2c(c1)OCO2", "hERG current change (%, negative = inhibition) at 1uM": 9.01}, {"smiles": "CCOc1ccc(CCNC(=O)c2cccnc2N2CCCC2)cc1OCC", "hERG current change (%, negative = inhibition) at 1uM": 12.3}, {"smiles": "O=C1N(Cc2cccc(Cl)c2)C[C@@H]2C[C@@H](c3ccc4nonc4c3)N3CCC[C@@]123", "hERG current change (%, negative = inhibition) at 1uM": -9.26}, {"smiles": "CC1(C)NC(=O)N(CCOc2ccc([N+](=O)[O-])cc2)C1=O", "hERG current change (%, negative = inhibition) at 1uM": 2.44}, {"smiles": "CC(=O)c1cccc(NC(=S)NC(=O)c2ccc(Cl)cc2)c1", "hERG current change (%, negative = inhibition) at 1uM": 5.34}]}]}
